# In all, about 2,900 compounds were measured (“NF-kB SEAP reporter activity, fold change vs agonist alone”: median about 0.99, highest 2% from about 2.6 on). Some of the results follow.
# How the values were obtained:
# [1] = test system: RAW-Dual; assay: NF-kB SEAP reporter activity, fold change vs agonist alone; cytotoxicity flag (confluency mask): not cytotoxic; higher = enhanced NF-kB activity
# Summary of the method: (§1)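 Reporter activity is given as fold change relative to agonist-alone wells. To measure it, 50 nL of library stock was pin-tooled onto RAW-Dual macrophages (50,000 cells/well, DMEM, 384-well plates), a PRR agonist followed 1 h later, and cells stayed at 37 °C, 5% CO2. Twenty hours on, supernatant was assayed for IRF (QuantiLuc luminescence) and NF-κB (QuantiBlue, 620 nm absorbance), and wells under 70% of agonist-control IncuCyte confluency in both mask sets were marked cytotoxic.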
# [2] = test system: RAW-Dual; assay: NF-kB SEAP reporter activity, fold change vs agonist alone; higher = enhanced NF-kB activity; conditions: library stock concentration (final ~1000-fold dilution): 10 mM
# Summary of the method: as §1
# [3] = test system: RAW-Dual; assay: NF-kB SEAP reporter activity, fold change vs agonist alone; cytotoxicity flag (confluency mask): cytotoxic (confluency <70% of control); higher = enhanced NF-kB activity
# Summary of the method: as §1
# [4] = agonist: ODN 1826 (TLR9) 0.5 ug/mL
# [5] = agonist: Pam2CSK4 (TLR2/6) 0.1 ug/mL
# [6] = agonist: Pam3CSK4 (TLR2/1) 0.1 ug/mL
# [7] = cytotoxicity flag (confluency mask): not cytotoxic, agonist: Imiquimod (TLR7) […]
# [8] = cytotoxicity flag (confluency mask): not cytotoxic, agonist: MPLA (TLR4) […]
smiles,measurement,setting,value
O=C(OC1CC2CCC(C1)[N+]21CCCC1)C(O)(c1ccccc1)c1ccccc1 (stereo not given) (library stock concentration (final ~1000-fold dilution): 10 mM),NF-kB SEAP reporter activity,[1]; agonist: LPS (TLR4) 0.1 ug/mL,1.21
same,NF-kB SEAP reporter activity,[1]; [4],0.958
same,NF-kB SEAP reporter activity,[1]; [5],0.978
same,NF-kB SEAP reporter activity,[1]; [6],1.16
O=C(O)CC[N+](=O)[O-],NF-kB SEAP reporter activity,[2]; [7],1.04
same,NF-kB SEAP reporter activity,[2]; [8],0.708
O=C(O)CC[N+](=O)[O-] (library stock concentration (final ~1000-fold dilution): 10 mM),NF-kB SEAP reporter activity,[1]; agonist: LPS (TLR4) 0.1 ug/mL,1.3
same,NF-kB SEAP reporter activity,[1]; [4],1.11
same,NF-kB SEAP reporter activity,[1]; [5],1.05
same,NF-kB SEAP reporter activity,[1]; [6],1.09
CC(C)=CCCC(C)(O)C1CCC2(C)C1C(O)CC1C3(C)CCC(OC4OC(CO)C(O)C(O)C4O)C(C)(C)C3CCC12C (stereo not given) (library stock concentration (final ~1000-fold dilution): 10 mM),NF-kB SEAP reporter activity,[1]; agonist: LPS (TLR4) 0.1 ug/mL,1.27
same,NF-kB SEAP reporter activity,[1]; [4],0.812
same,NF-kB SEAP reporter activity,[1]; [5],0.791
same,NF-kB SEAP reporter activity,[1]; [6],0.964
CC(C)=CCCC(C)(O)C1CCC2(C)C1C(O)CC1C3(C)CCC(OC4OC(CO)C(O)C(O)C4O)C(C)(C)C3CCC12C (stereo not given),NF-kB SEAP reporter activity,[2]; [7],0.783
same,NF-kB SEAP reporter activity,[2]; [8],0.974
COc1cc2c(cc1OC)C(Cc1ccc(O)c(Oc3cc4c(cc3OC)CCN(C)C4Cc3ccc(O)cc3)c1)N(C)CC2.[O-][Cl+3]([O-])([O-])O (stereo not given),NF-kB SEAP reporter activity,[2]; [7],0.975
same,NF-kB SEAP reporter activity,[2]; [8],1.3
COc1cc2c(cc1OC)C(Cc1ccc(O)c(Oc3cc4c(cc3OC)CCN(C)C4Cc3ccc(O)cc3)c1)N(C)CC2.[O-][Cl+3]([O-])([O-])O (stereo not given) (library stock concentration (final ~1000-fold dilution): 10 mM),NF-kB SEAP reporter activity,[1]; agonist: LPS (TLR4) 0.1 ug/mL,1.1
same,NF-kB SEAP reporter activity,[1]; [4],0.159
same,NF-kB SEAP reporter activity,[1]; [5],0.87
same,NF-kB SEAP reporter activity,[1]; [6],1.03
Nc1ncnc2c1ccn2C1OC(CO)C(O)C1O (stereo not given),NF-kB SEAP reporter activity,"[2]; cytotoxicity flag (confluency mask): cytotoxic (confluency <70% of control), agonist: Imiquimod (TLR7) […]",0.147
same,NF-kB SEAP reporter activity,"[2]; cytotoxicity flag (confluency mask): cytotoxic (confluency <70% of control), agonist: MPLA (TLR4) […]",0.247
Nc1ncnc2c1ccn2C1OC(CO)C(O)C1O (stereo not given) (library stock concentration (final ~1000-fold dilution): 10 mM),NF-kB SEAP reporter activity,[3]; agonist: LPS (TLR4) 0.1 ug/mL,0.531
same,NF-kB SEAP reporter activity,[3]; [4],0.19
same,NF-kB SEAP reporter activity,[3]; [5],0.0753
same,NF-kB SEAP reporter activity,[3]; [6],0.156
O=C(O)CNC(=O)C1C(=O)N(C2CCCCC2)C(=O)N(C2CCCCC2)C1=O (library stock concentration (final ~1000-fold dilution): 10 mM),NF-kB SEAP reporter activity,[1]; agonist: LPS (TLR4) 0.1 ug/mL,0.958
same,NF-kB SEAP reporter activity,[1]; [4],0.905
same,NF-kB SEAP reporter activity,[1]; [5],0.917
same,NF-kB SEAP reporter activity,[1]; [6],0.971
O=C(O)CNC(=O)C1C(=O)N(C2CCCCC2)C(=O)N(C2CCCCC2)C1=O,NF-kB SEAP reporter activity,[2]; [7],0.959
same,NF-kB SEAP reporter activity,[2]; [8],0.981
Cl.NC1CC1c1ccccc1 (stereo not given) (library stock concentration (final ~1000-fold dilution): 10 mM),NF-kB SEAP reporter activity,[1]; agonist: LPS (TLR4) 0.1 ug/mL,1.14
same,NF-kB SEAP reporter activity,[1]; [4],1.04
same,NF-kB SEAP reporter activity,[1]; [5],0.996
same,NF-kB SEAP reporter activity,[1]; [6],1.03
Cl.NC1CC1c1ccccc1 (stereo not given),NF-kB SEAP reporter activity,[2]; [7],0.918
same,NF-kB SEAP reporter activity,[2]; [8],1.07

# — the supplement of paper PMC10037445
